Measurements published in patent US20090155271A1 (ZymoGenetics, published 2009).
Where “and” joins values, the source holds several entries; their conditions need not be identical. Equal entries are not always repeated. Each block holds one binder with its values, some of them ahead of it.

Assays:
[1] = target: T1, human IL-17F (human, UniProt Q96PD4 31-163); assay: cell-based or functional assay
T1 sequence: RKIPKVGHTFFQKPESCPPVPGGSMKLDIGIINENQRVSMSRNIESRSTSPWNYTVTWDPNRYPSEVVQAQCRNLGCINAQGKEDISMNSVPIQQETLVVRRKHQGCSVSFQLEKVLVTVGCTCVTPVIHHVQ

[2] = target: T1, human IL-17F; assay: FACS competition, biotinylated IL17F on BHK IL17RCx4 cells
Experimental: (§1) The biotinylation of the ligand allows for FACS detection using a secondary Streptavidin conjugated fluorophore. A reduction in cell bound ligand over a titration of the soluble receptor is recorded as a reduction in the mean fluorescence of the cells. Biotinylated ligands are individually pre-mixed at 1 ug/ml with titrating amounts of soluble receptor in staining media (HBSS+1% BSA+0.1% NaAzide+10 mM HEPES) in 100 ul volumes and incubated at RT for 15 minutes. A BHK cell line stably transfected with full length IL17RCx4 is prepared for ligand staining by resuspension with Versene (Invitrogen cat. 15040-066), equilibrating to 2×10e5 cells/100 ul, pelleting, and resuspension in the ligand/soluble receptor pre-mix. […] The BD LSRII Flow Cytometer or similar instrument is used for data collection and analysis. FIG. 5 depicts a standard graph. The graph was generated using the Prizm software program. The Y values represent the MFI normalized to maximum and minimum (100% and 0%) based on ligand only and no ligand/no soluble receptor control wells, and thus the percent binding of the ligand to the cells. The software calculates the IC50 for each curve.

[3] = target: T2, human IL-17A (human, UniProt Q16552 24-155); assay: FACS competition, biotinylated IL17A on BHK IL17RCx4 cells
T2 construct: also called hIL-17A; huIL-17A
T2 sequence: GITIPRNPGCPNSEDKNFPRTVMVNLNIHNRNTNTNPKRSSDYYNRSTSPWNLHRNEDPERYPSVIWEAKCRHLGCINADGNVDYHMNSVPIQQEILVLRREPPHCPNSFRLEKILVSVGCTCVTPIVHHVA
Experimental: as §1

IC50, luciferase activation of hIL-17RCX4/NIH3T3/KZ142.8 cells by 1 ng/ml IL-17F [1]: 6 µg/mL
B1: soluble human IL-17RCx1 Fc fusion protein IL-17RC-Tbx-C(Fc9) (Fc fusion)
chain: LERLVGPQDATHCSPGLSCRLWDSDILCLPGDIVPAPGPVLAPTHLQTELVLRCQKETDCDLCLRVAVHLAVHGHWEEPEDEEKFGGAADSGVEEPRNASLQAQVVLSFQAYPTARCVLLEVQVPAALVQFGQSVGSVVYDCFEAALGSEVRIWSYTQPRYEKELNHTQQLPALPWLNVSADGDNVHLVLNVSEEQHFGLSLYWNQVQGPPKPRWHKNLTGPQIITLNHTDLVPCLCIQVWPLEPDSVRTNICPFREDPRAHQNLWQAARLRLLTLQSWLLDAPCSLPAEAALCWRAPGGDPCQPLVPPLSWENVTVDKVLEFPLLKGHPNLCVQVNSSEKLQLQECLWADSLGPLKDDVLLLETRGPQDNRSLCALEPSGCTSLPSKASTRAARLGEYLLQDLQSGQCLQLWDDDLGALWACPMDKYIHKGGSGGGTGSLVPRGS[human IgG1 Fc left out here]

IC50 [2]: 33 µg/mL and 42 µg/mL
IC50 [3]: 7 µg/mL and 9 µg/mL
B2: Variant 1407 (exons 1-10 of human IL-17RA and 8-16 of human IL-17RCx1, fused to Fc5) (Fc fusion)
chain: [about 300 residues left out here]ALPWLNVSADGDNVHLVLNVSEEQHFGLSLYWNQVQGPPKPRWHKNLTGPQIITLNHTDLVPCLCIQVWPLEPDSVRTNICPFREDPRAHQNLWQAARLRLLTLQSWLLDAPCSLPAEAALCWRAPGGDPCQPLVPPLSWENVTVDKVLEFPLLKGHPNLCVQVNSSEKLQLQECLWADSLGPLKDDVLLLETRGPQDNRSLCALEPSGCTSLPSKASTRAARLGEYLLQDLQSGQCLQLWDDDLGALWACPMDKYIHKEPKSSDKTHTCPPCPAPEAEGAPSVFLFPPKPKDTLMISRTPEVTCVVVDVSHEDPEVKFNWYVDGVEVHNAKTKPREEQYNSTYRVVSVLTVLHQDWLNGKEYKCKVSNKALPSSIEKTISKAKGQPREPQVYTLPPSRDELTKNQVSLTCLVKGFYPSDIAVEWESNGQPENNYKTTPPVLDSDGSFFLYSKLTVDKSRWQQGNVFSCSVMHEALHNHYTQKSLSLSPGK
notes: also called IL17RA/RC 1407
